The source of these data is the supplement of paper PMC11417369.

± gives the standard deviation of the averaged measurements. This is one part of the list.

The test deals with PfAP2-LT AP2 domain (GST-tagged). The experiment in a line: gcPBM binding intensity (ln(normalized median fluorescence intensity)); higher = stronger DNA binding. In short, it runs like this:
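DNA-binding domains from P. falciparum, fused to GST and produced in E. coli, were put on an Agilent 4 × 180k double-stranded probe array for 1 h in 1× PBS holding 1% milk, 0.2 mg/ml BSA, 0.5% salmon testes DNA and 0.03% Triton X-100. Probes were primer-extended, 36 bp long and drawn from intergenic genomic regions, with negative controls included. After Alexa488 anti-GST antibody detection and a 488 nm scan, binding intensity was set as the highest Masliner-normalised natural-log median intensity across replicate spots of either probe orientation.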
Regarding “ATTACATACGAGCACACGTAAAAGTATAATATAAAA [GTGCAC_negctrl_site446]”, the “gcPBM binding intensity (ln)” value came out at 9.03 ± 0.45.

As to “TATGTTCCATTTTTTGGTACACATACAATAACTGCT [XGTACX_site2256]”, the “gcPBM binding intensity (ln)” value worked out at 8.78 ± 0.38. The figure for “AACAAATACAAAGAATAGTCATCTGAATGGTGTTAT [GTGCAC_negctrl_site685]” is 9.18 ± 0.49; for “GTTATATGTTATATATATATATATATATATATATAT [TGCATGCA_negctrl_site428]” it is 9.51 ± 0.27; for “AATATATACATTTATATACACACCTATATATATATA [CACACA_site1972]” it is 9.11 ± 0.18. To “AAATTAATAAGTCACACACACATATATAATATATAT [CACACA_site799]” belongs 9.56 ± 0.27; to “AGCATCATTTTACACACATGCAAATGTAAAATAGGA [TGCATGCA_site460]”, 9.16 ± 0.29.

Take “CATATACATATATGTAGTACGTGTTCTTCTATATGA [XGTACX_site8344]”: the “gcPBM binding intensity (ln)” value is 8.84 ± 0.44.

For “ATTAATATGAAACGATTATAAGAAAGAAAAGAAATG [GTGCAC_negctrl_site701]”, the “gcPBM binding intensity (ln)” value turned out to be 8.68 ± 0.52. Regarding “TACATATACAGACACACACACACACCCCCACAAAAA [CACACA_site495]”, the “gcPBM binding intensity (ln)” value came to 10.45 ± 0.099. “AAATTGAATTAGTTAACACACAACTTTTATTTCATA [CACACA_site2840]”: the “gcPBM binding intensity (ln)” value was found to be 8.74 ± 0.4.

On to “TATATATATTTATGTACACACATCAATCATATTAAC [CACACA_site5127]”, for which the “gcPBM binding intensity (ln)” value came out at 9 ± 0.37. Consider “ATAAAGATTAATTCAAGTACACATCAAATACTACAA [XGTACX_site8794]”, for which the “gcPBM binding intensity (ln)” value was found to be 8.79 ± 0.38. To “ATACTTTATTCGTTAGCACACAATTCAAGTTGATTC [CACACA_site1123]” belongs 9.16 ± 0.4; to “TATTCCCTTCTTCCTTCTGTTTTTGATATTAAAGGG [GTGCAC_negctrl_site270]”, 8.71 ± 0.42. As for “AAGATACCCCAAAATTGTACATATTAAAATAATAAA [XGTACX_site3603]”, the “gcPBM binding intensity (ln)” value worked out at 8.95 ± 0.38. To “AGGTATATATACATATGTACGTATATATATATATAT [XGTACX_site5115]” belongs 9.88 ± 0.47. Turning to “ATAAAATAAACATAAATAAACATAAATAAACAAAAA [CACACA_negctrl_site1270]”, the “gcPBM binding intensity (ln)” value stood at 8.95 ± 0.52. To “TATAATACAACATGCACACATATATATGTGAATCTC [CACACA_site2490]” belongs 9.29 ± 0.28; to “TTTAAAAATAAAAGTACACACATAAACATATTACAC [CACACA_site1428]”, 9.14 ± 0.39.

As to “TTATATAAATTATTTACACACAAACATTTATACTTT [CACACA_site3449]”, the “gcPBM binding intensity (ln)” value was determined as 8.96 ± 0.45. To “GGCGTATGTGTATATACACACCCACGTATATAAATA [CACACA_site7489]” belongs 9.22 ± 0.45; to “TTTCTAATTTATATCACACACATATTTATATAGTAA [CACACA_site6813]”, 8.85 ± 0.32. As to ATAATCCAACTTTGAGTGCGTGGTGTTTTTTTTTTC, the “gcPBM binding intensity (ln)” value came out at 9.07 ± 0.43. The figure for “GGAATATTTTATGAGTGTACATTTTTTTTTTTTTTT [XGTACX_site2370]” is 8.57 ± 0.44; for “TTTCTTTTTTTTTTTTTTTCTTTTTTTTTTTTTTTC [CACACA_negctrl_site1025]” it is 8.37 ± 0.52; for “TATATATACATATACACACATACGTACATACATATA [CACACA_site3585]” it is 9.13 ± 0.39. As for “TACATACATATATATACACACATATATAATATATAT [CACACA_site388]”, the “gcPBM binding intensity (ln)” value was 9.07 ± 0.31. Consider “AAAAAAAAAAATAAATAAATAAATAAATATATATAT [TGCATGCA_negctrl_site468]”, for which the “gcPBM binding intensity (ln)” value worked out at 8.61 ± 0.38.

For the sequence “ATATTCATATATACTTCACACACATTTTATCATTCA [CACACA_site8784]”, the “gcPBM binding intensity (ln)” value turned out to be 9.26 ± 0.34. For “ATGAAAGTAAGACATGCATGGAATTTTTTTTATTAG [TGCATGCA_site348]”, the “gcPBM binding intensity (ln)” value is 8.79 ± 0.38. To “TTTTTTTTTTTTGAAGTGCATTACTTTTTTTGTATT [GTGCAC_site9811]” belongs 8.62 ± 0.52; to “TTTTTTGTGTTTGGTACACACGTTATAAAAAATAAA [CACACA_site4866]”, 8.51 ± 0.43. To “AGGAATATAAAGTGCACACATAATTTGGGGGCAAAA [CACACA_site258]” belongs 9.25 ± 0.44; to “GAAAATAGCTAAAATACACACAATTAAAAATTATTA [CACACA_site3506]”, 8.93 ± 0.5. Take “ATATGTCACTTGTATACACACATATATATTTCAATC [CACACA_site3256]”: the “gcPBM binding intensity (ln)” value is 9.36 ± 0.34. For “TTACTTATAAATAAATATACAAAAATGTTATATATA [XGTACX_negctrl_site223]”, the “gcPBM binding intensity (ln)” value is 8.24 ± 0.38. In the case of “CTGAAAAAAAAGCTTGCACACGTATTTGCTTTATGT [CACACA_site8427]”, the “gcPBM binding intensity (ln)” value is 9.24 ± 0.38. Turning to “TTTTTTTTTTTTTGCACACACATTGAATTATTATTC [CACACA_site197]”, the “gcPBM binding intensity (ln)” value came out at 9.35 ± 0.38. The figure for “ATAAGAAAATATAAAATGCACACTATAAATTGTATA [CACACA_site143]” is 8.89 ± 0.42; for “TATACCTATATACATACATGCAAATATATATTCATA [TGCATGCA_site269]” it is 8.71 ± 0.38; for “TATATAGAGAGATATGCACACTGTATGAATGCCCCC [CACACA_site5476]” it is 9.665 ± 0.035. The figure for “TTGTAAAACTTATAATGTACATTTTTTTTTTTTTTT [XGTACX_site5398]” is 8.51 ± 0.6; for “AGGGACATCTATATCACACACAAAAATTAGTCCCTT [CACACA_site7330]” it is 9.28 ± 0.4.
